# Source: the supplement of paper PMC8728848
# The other results are listed elsewhere or left out.
# Tests used:
# Experiment in all cases: glycan array binding signal (z-score within array); higher = stronger binding
# Conditions in all cases: glycan notation: IUPAC condensed, linker removed
# [1] = molecular target: Fuc(a1-2)Gal(b1-4)GlcNAc(b1-3)Gal(b1-4)GlcNAc(b1-3)Gal(b1-4)GlcNAc
# How it was run: (§1)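 From the Consortium for Functional Glycomics database, 3228 arrays were curated, keeping only those whose protein sequence was available. Binding is given as a within-array Z-score averaged across arrays sharing a protein sequence and across linkers. Negative Z-scores can be read as non-binding.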
# [2] = molecular target: Fuc(a1-2)Gal(b1-4)GlcNAc(b1-3)GalNAc
# How it was run: as §1
# [3] = molecular target: Fuc(a1-2)Gal(b1-4)GlcNAc(b1-3)[Fuc(a1-2)Gal(b1-4)GlcNAc(b1-6)]GalNAc
# How it was run: as §1
# [4] = molecular target: Fuc(a1-2)Gal(b1-4)GlcNAc(b1-3)[Fuc(a1-3)[Gal(b1-4)]GlcNAc(b1-6)]Gal(b1-4)Glc
# How it was run: as §1
# [5] = molecular target: Fuc(a1-2)Gal(b1-4)GlcNAc(b1-6)GalNAc
# How it was run: as §1
# [6] = molecular target: Fuc(a1-2)Gal(b1-4)GlcNAc6S
# How it was run: as §1
# [7] = molecular target: Fuc(a1-2)Gal(b1-4)[Fuc(a1-3)]GlcNAc
# How it was run: as §1
# [8] = molecular target: Fuc(a1-2)Gal(b1-4)[Fuc(a1-3)]GlcNAc(b1-2)Man(a1-3)[Fuc(a1-2)Gal(b1-4)[Fuc(a1-3)]GlcNAc(b1-2)Man(a1-6)]Man(b1-4)GlcNAc(b1-4)[Fuc(a1-6)]GlcNAc
# How it was run: as §1
# [9] = molecular target: Fuc(a1-2)Gal(b1-4)[Fuc(a1-3)]GlcNAc(b1-2)[Fuc(a1-2)Gal(b1-4)[Fuc(a1-3)]GlcNAc(b1-4)]Man(a1-3)[Fuc(a1-2)Gal(b1-4)[Fuc(a1-3)]GlcNAc(b1-2)Man(a1-6)]Man(b1-4)GlcNAc(b1-4)GlcNAc
# How it was run: as §1
# [10] = molecular target: Fuc(a1-2)Gal(b1-4)[Fuc(a1-3)]GlcNAc(b1-3)Gal(b1-4)[Fuc(a1-3)]GlcNAc
# How it was run: as §1
# [11] = molecular target: Fuc(a1-2)Gal(b1-4)[Fuc(a1-3)]GlcNAc(b1-3)Gal(b1-4)[Fuc(a1-3)]GlcNAc(b1-3)Gal(b1-4)[Fuc(a1-3)]GlcNAc
# How it was run: as §1
# [12] = molecular target: Fuc(a1-2)Gal(b1-4)[Fuc(a1-3)]GlcNAc(b1-3)GalNAc
# How it was run: as §1
# [13] = molecular target: Fuc(a1-2)Gal(b1-4)[Fuc(a1-3)]GlcNAc(b1-3)[Neu5Ac(a2-6)Gal(b1-4)GlcNAc(b1-6)]Gal(b1-4)Glc
# How it was run: as §1
# [14] = molecular target: Fuc(a1-2)Gal3S(b1-4)GlcNAc
# How it was run: as §1
# [15] = molecular target: Fuc(a1-2)Gal6S(b1-3)GlcNAc
# How it was run: as §1
# [16] = molecular target: Fuc(a1-2)Gal6S(b1-3)GlcNAc6S
# How it was run: as §1
# Fuc(a1-2)Gal6S(b1-4)Glc = molecular target: Fuc(a1-2)Gal6S(b1-4)Glc
# How it was run: as §1
# [17] = molecular target: Fuc(a1-2)Gal6S(b1-4)Glc6S
# How it was run: as §1
# Fuc(a1-2)[Gal(a1-3)]Gal = molecular target: Fuc(a1-2)[Gal(a1-3)]Gal
# How it was run: as §1
# [18] = molecular target: Fuc(a1-2)[Gal(a1-3)]Gal(b1-3)GalNAc
# How it was run: as §1
# [19] = molecular target: Fuc(a1-2)[Gal(a1-3)]Gal(b1-3)GalNAc(b1-3)Gal(a1-4)Gal(b1-4)Glc
# How it was run: as §1
# [20] = molecular target: Fuc(a1-2)[Gal(a1-3)]Gal(b1-3)GlcNAc
# How it was run: as §1
# [21] = molecular target: Fuc(a1-2)[Gal(a1-3)]Gal(b1-3)GlcNAc(b1-2)Man(a1-3)[Fuc(a1-2)[Gal(a1-3)]Gal(b1-3)GlcNAc(b1-2)Man(a1-6)]Man(b1-4)GlcNAc(b1-4)GlcNAc
# How it was run: as §1
# [22] = molecular target: Fuc(a1-2)[Gal(a1-3)]Gal(b1-3)GlcNAc(b1-2)Man(a1-3)[Fuc(a1-2)[Gal(a1-3)]Gal(b1-3)GlcNAc(b1-2)Man(a1-6)]Man(b1-4)GlcNAc(b1-4)[Fuc(a1-6)]GlcNAc
# How it was run: as §1
# [23] = molecular target: Fuc(a1-2)[Gal(a1-3)]Gal(b1-3)GlcNAc(b1-3)GalNAc
# How it was run: as §1
# [24] = molecular target: Fuc(a1-2)[Gal(a1-3)]Gal(b1-3)GlcNAc(b1-6)GalNAc
# How it was run: as §1
# [25] = molecular target: Fuc(a1-2)[Gal(a1-3)]Gal(b1-4)Glc
# How it was run: as §1
# [26] = molecular target: Fuc(a1-2)[Gal(a1-3)]Gal(b1-4)GlcNAc
# How it was run: as §1
# [27] = molecular target: Fuc(a1-2)[Gal(a1-3)]Gal(b1-4)GlcNAc(b1-2)Man
# How it was run: as §1
# [28] = molecular target: Fuc(a1-2)[Gal(a1-3)]Gal(b1-4)GlcNAc(b1-2)Man(a1-3)[Fuc(a1-2)[Gal(a1-3)]Gal(b1-4)GlcNAc(b1-2)Man(a1-6)]Man(b1-4)GlcNAc(b1-4)GlcNAc
# How it was run: as §1
# [29] = molecular target: Fuc(a1-2)[Gal(a1-3)]Gal(b1-4)GlcNAc(b1-2)Man(a1-3)[Fuc(a1-2)[Gal(a1-3)]Gal(b1-4)GlcNAc(b1-2)Man(a1-6)]Man(b1-4)GlcNAc(b1-4)[Fuc(a1-6)]GlcNAc
# How it was run: as §1
# [30] = molecular target: Fuc(a1-2)[Gal(a1-3)]Gal(b1-4)GlcNAc(b1-3)GalNAc
# How it was run: as §1
# [31] = molecular target: Fuc(a1-2)[Gal(a1-3)]Gal(b1-4)GlcNAc(b1-3)[Fuc(a1-2)[Gal(a1-3)]Gal(b1-4)GlcNAc(b1-6)]GalNAc
# How it was run: as §1
# [32] = molecular target: Fuc(a1-2)[Gal(a1-3)]Gal(b1-4)GlcNAc(b1-6)GalNAc
# How it was run: as §1
# [33] = molecular target: Fuc(a1-2)[Gal(a1-3)]Gal(b1-4)[Fuc(a1-3)]Glc
# How it was run: as §1
# [34] = molecular target: Fuc(a1-2)[Gal(a1-3)]Gal(b1-4)[Fuc(a1-3)]GlcNAc
# How it was run: as §1
# [35] = molecular target: Fuc(a1-2)[Gal(a1-3)]Gal(b1-4)[Fuc(a1-3)]GlcNAc(b1-3)GalNAc
# How it was run: as §1
# [36] = molecular target: Fuc(a1-2)[Gal(a1-4)]Gal(b1-4)GlcNAc
# How it was run: as §1
# [37] = molecular target: Fuc(a1-2)[GalNAc(a1-3)]Gal
# How it was run: as §1
# [38] = molecular target: Fuc(a1-2)[GalNAc(a1-3)]Gal(b1-3)GalNAc(a1-3)[Fuc(a1-2)]Gal(b1-4)GlcNAc
# How it was run: as §1
# [39] = molecular target: Fuc(a1-2)[GalNAc(a1-3)]Gal(b1-3)GalNAc(b1-3)Gal(a1-4)Gal(b1-4)Glc
# How it was run: as §1
# [40] = molecular target: Fuc(a1-2)[GalNAc(a1-3)]Gal(b1-3)GlcNAc
# How it was run: as §1
# [41] = molecular target: Fuc(a1-2)[GalNAc(a1-3)]Gal(b1-3)GlcNAc(b1-2)Man(a1-3)[Fuc(a1-2)[GalNAc(a1-3)]Gal(b1-3)GlcNAc(b1-2)Man(a1-6)]Man(b1-4)GlcNAc(b1-4)GlcNAc
# How it was run: as §1
# [42] = molecular target: Fuc(a1-2)[GalNAc(a1-3)]Gal(b1-3)GlcNAc(b1-2)Man(a1-3)[Fuc(a1-2)[GalNAc(a1-3)]Gal(b1-3)GlcNAc(b1-2)Man(a1-6)]Man(b1-4)GlcNAc(b1-4)[Fuc(a1-6)]GlcNAc
# How it was run: as §1
# [43] = molecular target: Fuc(a1-2)[GalNAc(a1-3)]Gal(b1-3)GlcNAc(b1-3)GalNAc
# How it was run: as §1
binder,measurement,setting,value
Cohesin-hDCIR (Homo sapiens) (protein) LDDLDAVRIKVDTVNAKPGDTVRIPVRFSGIPSKGIANCDFVYSYDPNVLEIIEIEPGDIIVDPNPDKSFDTAVYPDRKIIVFLFAEDSGTGAYAITKDGVFATIVAKVKEGAPNGLSVIKFVEVGGFANNDLVEQKTQFFDGGANVGDTTEPATPTTPVTTPTTTDDLDAASQKYSQLLEKKTTKELVHTTLECVKKNMPVEETAWSCCPKNWKSFSSNCYFISTESASWQDSEKDCARMEAHLLVINTQEEQDFIFQNLQEESAYFVGLSDPEGQRHWQWVDQTPYNESSTFWHPREPSDPNERCVVLNFRKSPKRWGWNDVNCLGPQRSVCEMMKIHLHHHHHH,glycan array binding signal (z-score),[1],-0.64
same,glycan array binding signal (z-score),[2],-0.226
same,glycan array binding signal (z-score),[3],0.574
same,glycan array binding signal (z-score),[4],-0.626
same,glycan array binding signal (z-score),[5],5.99
same,glycan array binding signal (z-score),[6],-0.5
same,glycan array binding signal (z-score),[7],0.638
same,glycan array binding signal (z-score),[8],-0.296
same,glycan array binding signal (z-score),[9],-0.294
same,glycan array binding signal (z-score),[10],-0.633
same,glycan array binding signal (z-score),[11],-0.618
same,glycan array binding signal (z-score),[12],0.007
same,glycan array binding signal (z-score),[13],-0.662
same,glycan array binding signal (z-score),[14],-0.475
same,glycan array binding signal (z-score),[15],-0.511
same,glycan array binding signal (z-score),[16],0.142
same,glycan array binding signal (z-score),Fuc(a1-2)Gal6S(b1-4)Glc,-0.454
same,glycan array binding signal (z-score),[17],-0.178
same,glycan array binding signal (z-score),Fuc(a1-2)[Gal(a1-3)]Gal,-0.466
same,glycan array binding signal (z-score),[18],-0.585
same,glycan array binding signal (z-score),[19],-0.519
same,glycan array binding signal (z-score),[20],2.05
same,glycan array binding signal (z-score),[21],-0.493
same,glycan array binding signal (z-score),[22],-0.382
same,glycan array binding signal (z-score),[23],-0.283
same,glycan array binding signal (z-score),[24],1.68
same,glycan array binding signal (z-score),[25],0.366
same,glycan array binding signal (z-score),[26],-0.418
same,glycan array binding signal (z-score),[27],-0.126
same,glycan array binding signal (z-score),[28],-0.03
same,glycan array binding signal (z-score),[29],-0.393
same,glycan array binding signal (z-score),[30],-0.635
same,glycan array binding signal (z-score),[31],-0.287
same,glycan array binding signal (z-score),[32],-0.51
same,glycan array binding signal (z-score),[33],-0.659
same,glycan array binding signal (z-score),[34],-0.182
same,glycan array binding signal (z-score),[35],0.387
same,glycan array binding signal (z-score),[36],0.014
same,glycan array binding signal (z-score),[37],-0.44
same,glycan array binding signal (z-score),[38],-0.185
same,glycan array binding signal (z-score),[39],-0.235
same,glycan array binding signal (z-score),[40],-0.219
same,glycan array binding signal (z-score),[41],0.23
same,glycan array binding signal (z-score),[42],-0.571
same,glycan array binding signal (z-score),[43],0.406
